Records with an inconclusive call do not appear. Certain results were filed several times, with different values. They are shown here; other results are not. The source may hold further records. Values that stand side by side repeat one measurement (runs, samples, wells, individuals or studies). Records carry a tag for their origin. A, B and so on number the origins entry by entry. Additions like (4×) count equal records among those shown.
System: BDF1 mice, colon carcinoma 38 sc, T/C %
Experiment: NCI In Vivo Anticancer Drug Screen. Data for tumor model Colon Carcinoma 38 (subcutaneous) in B6D2F1 (BDF1) mice
Settings: endpoint: median tumor weight (est.), higher = larger tumour
Outline: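 Mice with transplanted tumors are treated with compound or vehicle. Survival or tumor size is then measured in both groups. The ratio of treated to control gives the reported figure.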

[1] = dose: 100.0 mg/kg/injection, schedule: Q07DX002 (ip), vehicle: saline with Tween-80
[2] = dose: 25.0 mg/kg/injection, schedule: Q07DX002 (ip), vehicle: Klucel (hydroxypropylcellulose) (HPC)
[3] = dose: 50.0 mg/kg/injection, schedule: Q07DX002 (ip), vehicle: saline
[4] = dose: 100.0 mg/kg/injection, schedule: Q07DX002 (ip), vehicle: saline
[5] = dose: 12.5 mg/kg/injection, schedule: Q07DX002 (ip), vehicle: saline
[6] = dose: 25.0 mg/kg/injection, schedule: Q07DX002 (ip), vehicle: saline
[7] = dose: 400.0 mg/kg/injection, schedule: Q07DX002 (ip), vehicle: saline
[8] = dose: 50.0 mg/kg/injection, schedule: Q07DX002 (ip), vehicle: saline with Tween-80
[9] = dose: 50.0 mg/kg/injection, schedule: Q07DX002 (ip), vehicle: water
[10] = dose: 50.0 mg/kg/injection, schedule: Q07DX002 (ip), vehicle: Klucel (hydroxypropylcellulose) (HPC)
[11] = dose: 200.0 mg/kg/injection, schedule: Q07DX002 (ip), vehicle: saline
[12] = dose: 6.25 mg/kg/injection, schedule: Q07DX002 (ip), vehicle: saline with Tween-80
[13] = dose: 12.5 mg/kg/injection, schedule: Q07DX002 (ip), vehicle: saline with Tween-80
[14] = dose: 25.0 mg/kg/injection, schedule: Q07DX002 (ip), vehicle: saline with Tween-80

OCC1OC(n2cnc3c(=S)nc[nH]c32)C(O)C1O (centres undefined)
T/C [1]: 55 % of control [sample A] and 70 % of control, 124 % of control (2×) [sample B] | T/C (dose: 200.0 mg/kg/injection, schedule: Q07DX002 (ip), vehicle: saline with Tween-80): 30 % of control [sample A] and 79 % of control, 92 % of control [sample B] | T/C (dose: 400.0 mg/kg/injection, schedule: Q07DX002 (ip), vehicle: saline with Tween-80): 21 % of control [sample A] and 43 % of control, 82 % of control, 100 % of control [sample B]

O=NN(CCF)C(=O)NC1CCCCC1
T/C [2]: 49 % of control and 76 % of control

N=C1CCCS1
T/C [3]: 29 % of control and 103 % of control | T/C [4]: 46 % of control and 101 % of control

OCC1OC(n2cnc3c(Cl)ncnc32)C(O)C1O (centres undefined)
T/C [5]: 102 % of control and 150 % of control | T/C [6]: 33 % of control and 153 % of control | T/C [3]: 33 % of control and 150 % of control | T/C [7]: 58 % of control, 170 % of control, 214 % of control

CN(C)c1nc(N(C)C)nc(N(C)C)n1
T/C (dose: 320.0 mg/kg/injection, schedule: Q07DX002 (ip), vehicle: saline with Tween-80): 39 % of control and 96 % of control

C/C(=N/NC(N)=S)c1ccc2ccccc2c1
T/C [8]: 28 % of control and 61 % of control

C1CC[N-]CC1.[Cl][Pt+2][Cl].[NH-]C1CC1
T/C (dose: 12.5 mg/kg/injection, schedule: Q07DX002 (ip), vehicle: water): 90 % of control and 121 % of control | T/C [9]: 70 % of control and 188 % of control

COC1CC(CC2CCC(C)C(C(C)C(=O)O)O2)OC2(OC(C)(C3CCC(C)(C4OC(C5OC(O)(CO)C(C)CC5C)CC4C)O3)CC2C)C1C (centres undefined)
T/C (dose: 0.63 mg/kg/injection, schedule: Q07DX002 (ip), vehicle: Klucel (hydroxypropylcellulose) (HPC)): 74 % of control and 104 % of control

C[n+]1c(-c2cccc(OCCOCCOc3cccc(-c4c5cc(N)ccc5c5ccc(N)cc5[n+]4C)c3)c2)c2cc(N)ccc2c2ccc(N)cc21
T/C (dose: 2.0 mg/kg/injection, schedule: Q07DX002 (ip), vehicle: water): 62 % of control and 91 % of control | T/C (dose: 8.0 mg/kg/injection, schedule: Q07DX002 (ip), vehicle: water): 52 % of control, 73 % of control, 122 % of control | T/C (dose: 16.0 mg/kg/injection, schedule: Q07DX002 (ip), vehicle: water): 44 % of control, 64 % of control, 75 % of control

C=C(OC1C(C)=C2C(C1OC(=O)CCCCCCC)C(C)(OC(C)=O)CC(OC(=O)CCC)C1(O)C2OC(=O)C1(C)O)/C(C)=C/C (centres undefined)
T/C (dose: 0.22 mg/kg/injection, schedule: Q07DX002 (ip), vehicle: Klucel (hydroxypropylcellulose) (HPC)): 110 % of control and 156 % of control | T/C (dose: 0.42 mg/kg/injection, schedule: Q07DX002 (ip), vehicle: Klucel (hydroxypropylcellulose) (HPC)): 11 % of control, 86 % of control, 102 % of control | T/C (dose: 3.37 mg/kg/injection, schedule: Q07DX002 (ip), vehicle: Klucel (hydroxypropylcellulose) (HPC)): 56 % of control and 176 % of control

Cc1nnc2ncccn12
T/C [6]: 90 % of control and 116 % of control | T/C [4]: 89 % of control and 120 % of control

O=c1[nH]cccc1O
T/C (dose: 500.0 mg/kg/injection, schedule: Q07DX002 (ip), vehicle: saline with Tween-80): 44 % of control and 86 % of control | T/C (dose: 1000.0 mg/kg/injection, schedule: Q07DX002 (ip), vehicle: saline with Tween-80): 78 % of control and 120 % of control

CCC(=O)O[C@H]1CC[C@H]2[C@@H]3CCC4=CC(=O)CC[C@]4(C)[C@H]3CC[C@]12C
T/C (dose: 80.0 mg/kg/injection, schedule: Q07DX002 (ip), vehicle: Klucel (hydroxypropylcellulose) (HPC)): 68 % of control, 87 % of control, 103 % of control | T/C (dose: 160.0 mg/kg/injection, schedule: Q07DX002 (ip), vehicle: Klucel (hydroxypropylcellulose) (HPC)): 117 % of control and 159 % of control | T/C (dose: 320.0 mg/kg/injection, schedule: Q07DX002 (ip), vehicle: Klucel (hydroxypropylcellulose) (HPC)): 80 % of control, 115 % of control, 121 % of control

COC1C(O)C(C)OC(OC2C(Oc3cccc4c(O)c5c(=O)oc6ccc(C)c7c(=O)oc(c34)c5c67)OC(C)C(O)C2O)C1O (centres undefined)
T/C [10]: 75 % of control and 159 % of control | T/C (dose: 50.0 mg/kg/injection, schedule: Q07DX003 (ip), vehicle: Klucel (hydroxypropylcellulose) (HPC)): 67 % of control and 104 % of control | T/C (dose: 100.0 mg/kg/injection, schedule: Q07DX002 (ip), vehicle: Klucel (hydroxypropylcellulose) (HPC)): 60 % of control and 154 % of control

COC1C(/C=C/C(C)=O)OC2OC(C)(C)OC21 (centres undefined)
T/C [5]: 93 % of control and 154 % of control | T/C [3]: 82 % of control and 115 % of control | T/C [11]: 84 % of control and 111 % of control

CC1CCC(n2cnc3c(Cl)ncnc32)O1 (centres undefined)
T/C [2]: 86 % of control and 156 % of control | T/C (dose: 400.0 mg/kg/injection, schedule: Q07DX002 (ip), vehicle: Klucel (hydroxypropylcellulose) (HPC)): 71 % of control and 108 % of control

N=c1ccn2c(n1)OC1C(O)C(CO)OC12 (centres undefined)
T/C [4]: 82 % of control, 94 % of control, 109 % of control | T/C [11]: 73 % of control, 86 % of control, 102 % of control | T/C [7]: 60 % of control, 78 % of control, 87 % of control | T/C (dose: 800.0 mg/kg/injection, schedule: Q07DX002 (ip), vehicle: saline): 52 % of control, 84 % of control, 87 % of control

O=C(O)c1c2c(nc3ccccc13)Cc1ccccc1-2
T/C (dose: 25.0 mg/kg/injection, schedule: Q07DX002 (ip), vehicle: water): 121 % of control and 171 % of control | T/C [9]: 116 % of control and 159 % of control

O=[N+]([O-])c1ccc(Sc2ccncn2)c([N+](=O)[O-])c1
T/C [8]: 19 % of control and 100 % of control

CC1(C)CC(=O)C(CSC(=O)c2ccccc2)C(=O)C1
T/C [10]: 65 % of control and 103 % of control

Ic1ncnc2c1ncn2C1CCCO1 (centres undefined)
T/C [10]: 52 % of control and 108 % of control

CN(C)CCN1C(=O)c2cccc3cc(N)cc(c23)C1=O
T/C (dose: 32.0 mg/kg/injection, schedule: Q07DX002 (ip), vehicle: saline with Tween-80): 52 % of control and 80 % of control

NC1=NCN(C2OC(CO)C(O)C2O)C(=O)N1 (centres undefined)
T/C (dose: 200.0 mg/kg/injection, schedule: Q07DX003 (ip), vehicle: saline): 81 % of control and 118 % of control | T/C (dose: 800.0 mg/kg/injection, schedule: Q07DX003 (ip), vehicle: saline): 30 % of control, 52 % of control, 78 % of control

S=C=NCCc1ccccc1
T/C [12]: 71 % of control and 114 % of control | T/C [13]: 61 % of control and 90 % of control | T/C [14]: 78 % of control and 113 % of control | T/C [8]: 37 % of control and 68 % of control

C/C=C/c1cc2c(c(=O)o1)C(=O)[C@@H](O)[C@H](C)O2
T/C [1]: 59 % of control and 92 % of control

COc1ccc2c(NCCCCCCNc3c4ccccc4nc4cc(OC)ccc34)c3ccccc3nc2c1
T/C (dose: 0.62 mg/kg/injection, schedule: Q07DX002 (ip), vehicle: lactic acid): 52 % of control and 166 % of control | T/C (dose: 1.25 mg/kg/injection, schedule: Q07DX002 (ip), vehicle: lactic acid): 74 % of control, 95 % of control, 104 % of control | T/C (dose: 2.5 mg/kg/injection, schedule: Q07DX002 (ip), vehicle: lactic acid): 33 % of control, 77 % of control, 89 % of control | T/C (dose: 5.0 mg/kg/injection, schedule: Q07DX002 (ip), vehicle: lactic acid): 46 % of control, 64 % of control, 103 % of control | T/C (dose: 10.0 mg/kg/injection, schedule: Q07DX002 (ip), vehicle: lactic acid): 26 % of control, 84 % of control, 105 % of control

c1cnc2ncncc2n1
T/C [14]: 57 % of control and 119 % of control | T/C [8]: 80 % of control and 109 % of control

CSc1ccc2c(c1)C(N1CCN(C)CC1)Cc1ccccc1S2 (centres undefined)
T/C [12]: 39 % of control and 65 % of control | T/C [13]: 35 % of control and 67 % of control | T/C [14]: 57 % of control and 99 % of control

CCSC(=O)N1c2ccc(OC)cc2C=CC1C#N (centres undefined)
T/C (dose: 700.0 mg/kg/injection, schedule: Q07DX002 (ip), vehicle: saline with Tween-80): 84 % of control and 114 % of control

— PubChem BioAssay AID212 (DTP/NCI, 2004)
